Experimental data as given in ChEMBL document CHEMBL4888484, “Replenishing the malaria drug discovery pipeline: Screening and hit evaluation of the MMV Hit Generation Library 1 (HGL1) against asexual blood stage Plasmodium falciparum ,using a nano luciferase reporter read-out” (2022).
The campaign covered roughly 150,000 compounds. About 540 (0.36%) showed an effect of 50% or more. The list shows a part of the results.

test system: Plasmodium falciparum; experiment: Primary screen in NF54 nanoGlo assay, in single point, at 2uM, 72h; a lower Z score goes with more inhibition; assay type: functional, Erythrocyte; settings: timepoint 72 hour

SMILES | % Inhibition [%] | Z score
COCc1nc2c(s1)CN(S(=O)(=O)c1c(C)noc1C)CC2 | 1 | -0.15
O=c1[nH]c2ccccc2nc1-c1cc(Br)ccc1NS(=O)(=O)c1ccccc1 | -1 | 0.12
CO[C@H]1[C@H](NC(=O)c2c(F)cccc2Cl)c2ccccc2C12CCNCC2 | -8 | 1.06
Cc1cccc(NS(=O)(=O)c2cc(-c3[nH]nc(C)c3C)sc2C)c1 | 5 | -0.6
Cn1ncn(CC(=O)NCCC2=CCCCC2)c1=O | -5 | 1
Cc1cc(C)cc(C2CCN(C(=O)C(C)O)C2)c1 (stereo not drawn) | -9 | 1.76
Cc1nc(C(C)C)cc(N2CCN(Cc3ccc(Cl)s3)CC2)n1 | -6 | 1.24
Cc1nnc(COc2ccc3ccccc3c2Br)o1 | -9 | 1.68
Cn1cc(Cl)c(-c2nc([C@H]3CCOC3)no2)n1 | 2 | -0.27
O=C(N[C@H](c1ccc(F)cc1F)C1CC1)c1cnn2cccc(Cl)c12 | 1 | -0.09
O=C(NCc1cn(-c2cccnc2)nn1)c1ccc(S(=O)(=O)N2CCOCC2)cc1 | -5 | 0.73
CCC[C@H]1CN(C(=O)CCc2ccc(N(C)C)cc2)C[C@@H]1NC(C)=O | -14 | 1.96
CC1CC(C)n2nccc2N1C(=O)COCc1ccccc1Cl (stereo not drawn) | -2 | 0.39
CC(C)c1nnsc1CN(C)Cc1cnccn1 | -13 | 1.23
CC1(C)CN(C(=O)CC2CC3CCC2C3)CC[S+]1[O-] (stereo not drawn) | -2 | 0.4
O=C(NCc1ccccc1)NC[C@@]12CCC[C@H]1N(CC1CCCCC1)C(=O)CC2 | -5 | 0.6
CCOc1cc(N2CCN(C)CC2)ccc1NC(=O)[C@H]1CCCN(C(=O)N(CC)CC)C1 | -16 | 2.38
CCOCCN(C[C@H](C)C(=O)OC)C(=O)Cc1ccccc1F | 0 | -0.04
CC(C)CC(=O)N1CCN(Cc2cccc(C#N)c2)[C@@H]2CS(=O)(=O)C[C@@H]21 | -7 | 1.03
C[C@H]1CN(C(=O)NCc2cccc(Cl)c2)C[C@@H]1CS(N)(=O)=O | -18 | 1.79
Cn1ccnc(NC[C@]2(O)CCCC2(C)C)c1=O | -19 | 1.77
CCc1ccnc(C(=O)N2CCN(c3cnccn3)CC2)c1 | -4 | 0.46
CN(CCCn1cccn1)C(=O)NC[C@@H](c1ccc(F)cc1)N1CCCC1 | -2 | 0.41
Cc1ccc(CN2CCN(Cc3cc(CC(C)C)[nH]n3)C[C@@H]2CCO)o1 | 11 | -1.46
